{"source": "the supplement of paper PMC8728848", "binders": {"B1": {"name": "Als1 (Candida albicans), P46590 (protein)", "chain": "KTITGVFDSFNSLTWSNAANYAFKGPGYPTWNAVLGWSLDGTSANPGDTFTLNMPCVFKYTTSQTSVDLTADGVKYATCQFYSGEEFTTFSTLTCTVNDALKSSIKAFGTVTLPIAFNVGGTGSSTDLEDSKCFTAGTNTVTFNDGDKDISIDVEFEKSTVDPSGYLYASRVMPSLNKVTTLFVAPQCENGYTSGTMGFSSSNGDVAIDCSNIHIGITKGLNDWNYPVSSESFSYTKTCTSNGIQIKYQNVPAGYRPFIDAYISATDVNQYTLAYTNDYTCAGSRLQSKPFTLRWTGYKNSDAGSNGIVIVATTRTVTDSTTAVTTLPFNPSVDKTKTIEILQPIPTTTITTSYVGVTTSYLTKTAPIGETATVIVDVPYHTTTTVTSEWTGTITTTTTRTNPTDSIDTVVVQVP"}}, "assay_in_all_cases": "glycan array binding signal (z-score within array); higher = stronger binding", "conditions_in_all_cases": "glycan notation: IUPAC condensed, linker removed", "key": {"[1]": {"target": "Gal3S(b1-3)[Fuc(a1-4)]GlcNAc", "procedure,_shortened": "(§1)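 Glycan array data were curated from 3228 arrays in the Consortium for Functional Glycomics database and kept only where the protein sequence was available. Glycan names were converted to IUPAC-condensed notation, and columns mapping to the same glycan were averaged. The binding signal is a within-array Z-score, averaged across arrays of the same protein sequence at different concentrations or buffers and across linkers. Negative Z-scores can be read as non-binding.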"}, "Gal3S(b1-4)Glc": {"target": "Gal3S(b1-4)Glc", "procedure,_shortened": "as §1"}, "Gal3S(b1-4)Glc6S": {"target": "Gal3S(b1-4)Glc6S", "procedure,_shortened": "as §1"}, "Gal3S(b1-4)GlcNAc": {"target": "Gal3S(b1-4)GlcNAc", "procedure,_shortened": "as §1"}, "[2]": {"target": "Gal3S(b1-4)[Fuc(a1-3)]Glc6S", "procedure,_shortened": "as §1"}, "[3]": {"target": "Gal3S(b1-4)[Fuc(a1-3)]GlcNAc", "procedure,_shortened": "as §1"}, "[4]": {"target": "Gal3S(b1-4)[Fuc(a1-3)]GlcNAc6S", "procedure,_shortened": "as §1"}, "Gal3S4S(b1-4)GlcNAc": {"target": "Gal3S4S(b1-4)GlcNAc", "procedure,_shortened": "as §1"}, "Gal3S6S(b1-4)GlcNAc": {"target": "Gal3S6S(b1-4)GlcNAc", "procedure,_shortened": "as §1"}, "Gal3S6S(b1-4)GlcNAc6S": {"target": "Gal3S6S(b1-4)GlcNAc6S", "procedure,_shortened": "as §1"}, "Gal4S(b1-4)GlcNAc": {"target": "Gal4S(b1-4)GlcNAc", "procedure,_shortened": "as §1"}, "Gal4S6S(b1-4)GlcNAc": {"target": "Gal4S6S(b1-4)GlcNAc", "procedure,_shortened": "as §1"}, "Gal6P(b1-4)GlcNAc": {"target": "Gal6P(b1-4)GlcNAc", "procedure,_shortened": "as §1"}, "Gal6S(b1-3)GlcNAc": {"target": "Gal6S(b1-3)GlcNAc", "procedure,_shortened": "as §1"}, "Gal6S(b1-3)GlcNAc6S": {"target": "Gal6S(b1-3)GlcNAc6S", "procedure,_shortened": "as §1"}, "Gal6S(b1-4)Glc": {"target": "Gal6S(b1-4)Glc", "procedure,_shortened": "as §1"}, "Gal6S(b1-4)Glc6S": {"target": "Gal6S(b1-4)Glc6S", "procedure,_shortened": "as §1"}, "Gal6S(b1-4)GlcNAc": {"target": "Gal6S(b1-4)GlcNAc", "procedure,_shortened": "as §1"}, "Gal6S(b1-4)GlcNAc6S": {"target": "Gal6S(b1-4)GlcNAc6S", "procedure,_shortened": "as §1"}, "GalNAc(a1-3)Gal": {"target": "GalNAc(a1-3)Gal", "procedure,_shortened": "as §1"}, "GalNAc(a1-3)GalNAc": {"target": "GalNAc(a1-3)GalNAc", "procedure,_shortened": "as §1"}, "[5]": {"target": "GalNAc(a1-3)GalNAc(b1-3)Gal(a1-4)Gal(b1-4)Glc", "procedure,_shortened": "as §1"}, "[6]": {"target": "GalNAc(a1-3)GalNAc(b1-3)Gal(a1-4)Gal(b1-4)GlcNAc", "procedure,_shortened": "as §1"}, "GalNAc(b1-3)Gal": {"target": "GalNAc(b1-3)Gal", "procedure,_shortened": "as §1"}, "[7]": {"target": "GalNAc(b1-3)Gal(a1-4)Gal(b1-4)GlcNAc", "procedure,_shortened": "as §1"}, "[8]": {"target": "GalNAc(b1-3)Gal(a1-4)Gal(b1-4)GlcNAc(b1-3)Gal(b1-4)Glc", "procedure,_shortened": "as §1"}, "[9]": {"target": "GalNAc(b1-3)Gal(a1-6)Gal(b1-4)Glc", "procedure,_shortened": "as §1"}, "GalNAc(b1-3)GalNAc": {"target": "GalNAc(b1-3)GalNAc", "procedure,_shortened": "as §1"}, "GalNAc(b1-3)GlcNAc": {"target": "GalNAc(b1-3)GlcNAc", "procedure,_shortened": "as §1"}, "GalNAc(b1-4)Gal(b1-4)Glc": {"target": "GalNAc(b1-4)Gal(b1-4)Glc", "procedure,_shortened": "as §1"}, "GalNAc(b1-4)GlcNAc": {"target": "GalNAc(b1-4)GlcNAc", "procedure,_shortened": "as §1"}, "[10]": {"target": "GalNAc(b1-4)GlcNAc(b1-2)Man", "procedure,_shortened": "as §1"}, "[11]": {"target": "GalNAc(b1-4)GlcNAc(b1-2)Man(a1-3)[GalNAc(b1-4)GlcNAc(b1-2)Man(a1-6)]Man(b1-4)GlcNAc(b1-4)GlcNAc", "procedure,_shortened": "as §1"}, "[12]": {"target": "GalNAc(b1-4)GlcNAc(b1-3)GalNAc(b1-4)GlcNAc", "procedure,_shortened": "as §1"}, "GalNAc(b1-4)GlcNAc6S": {"target": "GalNAc(b1-4)GlcNAc6S", "procedure,_shortened": "as §1"}, "GalNAc(b1-6)GalNAc": {"target": "GalNAc(b1-6)GalNAc", "procedure,_shortened": "as §1"}, "GalNAc3S(b1-4)GlcNAc": {"target": "GalNAc3S(b1-4)GlcNAc", "procedure,_shortened": "as §1"}}, "note": "The list shows a part of the results.", "data": [{"binder": "B1", "values": [{"measurement": "glycan array binding signal (z-score)", "setting": "[1]", "value": 0.026}, {"measurement": "glycan array binding signal (z-score)", "setting": "Gal3S(b1-4)Glc", "value": -0.706}, {"measurement": "glycan array binding signal (z-score)", "setting": "Gal3S(b1-4)Glc6S", "value": -0.394}, {"measurement": "glycan array binding signal (z-score)", "setting": "Gal3S(b1-4)GlcNAc", "value": 0.691}, {"measurement": "glycan array binding signal (z-score)", "setting": "[2]", "value": 0.493}, {"measurement": "glycan array binding signal (z-score)", "setting": "[3]", "value": 0.517}, {"measurement": "glycan array binding signal (z-score)", "setting": "[4]", "value": 0.157}, {"measurement": "glycan array binding signal (z-score)", "setting": "Gal3S4S(b1-4)GlcNAc", "value": 2.59}, {"measurement": "glycan array binding signal (z-score)", "setting": "Gal3S6S(b1-4)GlcNAc", "value": 2.86}, {"measurement": "glycan array binding signal (z-score)", "setting": "Gal3S6S(b1-4)GlcNAc6S", "value": 3.22}, {"measurement": "glycan array binding signal (z-score)", "setting": "Gal4S(b1-4)GlcNAc", "value": 0.401}, {"measurement": "glycan array binding signal (z-score)", "setting": "Gal4S6S(b1-4)GlcNAc", "value": 0.129}, {"measurement": "glycan array binding signal (z-score)", "setting": "Gal6P(b1-4)GlcNAc", "value": -0.562}, {"measurement": "glycan array binding signal (z-score)", "setting": "Gal6S(b1-3)GlcNAc", "value": -0.329}, {"measurement": "glycan array binding signal (z-score)", "setting": "Gal6S(b1-3)GlcNAc6S", "value": 0.39}, {"measurement": "glycan array binding signal (z-score)", "setting": "Gal6S(b1-4)Glc", "value": -0.309}, {"measurement": "glycan array binding signal (z-score)", "setting": "Gal6S(b1-4)Glc6S", "value": -0.496}, {"measurement": "glycan array binding signal (z-score)", "setting": "Gal6S(b1-4)GlcNAc", "value": -0.246}, {"measurement": "glycan array binding signal (z-score)", "setting": "Gal6S(b1-4)GlcNAc6S", "value": 0.563}, {"measurement": "glycan array binding signal (z-score)", "setting": "GalNAc(a1-3)Gal", "value": -0.112}, {"measurement": "glycan array binding signal (z-score)", "setting": "GalNAc(a1-3)GalNAc", "value": -1.08}, {"measurement": "glycan array binding signal (z-score)", "setting": "[5]", "value": 0.222}, {"measurement": "glycan array binding signal (z-score)", "setting": "[6]", "value": 0.295}, {"measurement": "glycan array binding signal (z-score)", "setting": "GalNAc(b1-3)Gal", "value": -0.084}, {"measurement": "glycan array binding signal (z-score)", "setting": "[7]", "value": 0.105}, {"measurement": "glycan array binding signal (z-score)", "setting": "[8]", "value": -0.171}, {"measurement": "glycan array binding signal (z-score)", "setting": "[9]", "value": 1.09}, {"measurement": "glycan array binding signal (z-score)", "setting": "GalNAc(b1-3)GalNAc", "value": 0.185}, {"measurement": "glycan array binding signal (z-score)", "setting": "GalNAc(b1-3)GlcNAc", "value": 0.265}, {"measurement": "glycan array binding signal (z-score)", "setting": "GalNAc(b1-4)Gal(b1-4)Glc", "value": 0.601}, {"measurement": "glycan array binding signal (z-score)", "setting": "GalNAc(b1-4)GlcNAc", "value": 0.055}, {"measurement": "glycan array binding signal (z-score)", "setting": "[10]", "value": -0.346}, {"measurement": "glycan array binding signal (z-score)", "setting": "[11]", "value": -0.045}, {"measurement": "glycan array binding signal (z-score)", "setting": "[12]", "value": 0.046}, {"measurement": "glycan array binding signal (z-score)", "setting": "GalNAc(b1-4)GlcNAc6S", "value": 0.045}, {"measurement": "glycan array binding signal (z-score)", "setting": "GalNAc(b1-6)GalNAc", "value": -0.555}, {"measurement": "glycan array binding signal (z-score)", "setting": "GalNAc3S(b1-4)GlcNAc", "value": -0.713}]}]}
